# Data from the supplement of paper PMC12632987.
# The full ranking holds about 2,300 sequences; the median of “median log2 fold change of GCK-ALFA target abundance (FLAG IP / Myc IP barcode read proportion)” is about 0.095, and the lowest 2% start at about -0.47. This is one part of the list.
# B1: LC3A_3_1842 (protein)
# chain: LEEERKKAIEALKAAGHSQETIDAFQEALDALLEKGYEEAAKTFIKLMLELIDMPDELLLELAEEVLEYVETTDDSEEETKKKIEELAKLYKNEYEIEEL
# B2: LC3A_free_46_2429 (protein)
# chain: YVVEIDIDLLHEDEEVLKKAVEEIVAKAKEIAAKHGAEIKIETEISKLEDGSYFAEINITVTVDDKETAEKIANEIIDAIDEIAEKYDVSYIISVDISEA
# B3: LC3A_62_2043 (protein)
# chain: MYLATVDVDILAKDEEAAEKIYEEIKKKLEELKKKDPNIKYEVKLDKENKYVSVTVTYEAETLEEAEKKAQEIEDELDEILEKNEDLIKAALISREITKL
# B4: LC3A_28_1230 (protein)
# chain: SEIEEQIEEALKKAEEAKKEGKSEVITIKVSGKTTLEEAEKIAKKMEEIAELLKDLPKQHIIIDIERGVSQEVLDLLMKKAEEIEKKYPNVTVIFALEEE
# B5: LC3A_28_1162 (protein)
# chain: SAIEESIKAAFEELEKAIKEGKNGVITLKVPGDATEEDIERLIKALEEIAKKAEEHGINGILIDVDGGVKQEHIDRLAKAAEEIEKKYPKVTIIIALSDE
# B6: LC3A_3_1429 (protein)
# chain: MEEILEEARKVLEEAGFDEETIEAVLELLRLALEAGEFEEARELIEELKKAKDVDSEDVLEAAREALRRIREEGVPIEEALREFIEEIRVLRLEKEIEEL
# B7: LC3A_3_1389 (protein)
# chain: FEEIKKETIEELKKFGKSEEVIKEAEKVLDALAEKGYLKAMETLLKEVKELKDASDELLLDFFRSVLEKVTTEDLTEEETVEFIKEEATVTKNESEIEEL
# B8: LC3A_28_966 (protein)
# chain: SRLEEEIEKALKEAKEAAEKGEAKTIVIKIPGDTTEEDTEKIIEALYEIAEILKDIKGAAILLDVEPGVSQEHIDKLADAAEEIEKKYPNVTVIIALEEE
# B9: LC3A_3_1503 (protein)
# chain: MEEILKELEEELKKMGFSEEVIKLAIEAMKLLLERGYEEAAETLRELLKEMKDLSNEAKLAFMKDVLELLKTSDLSEEELIAEIKAIATTTRNDAEIEEL
# B10: LC3A_3_1712 (protein)
# chain: MEELLKEAEEILKKQGRSEETIEAVLEALKALLEKGYEEAAKTFIELLKEMKDLSDEILLDFALDVKEFVETEDASEEEVIEFIKEEAETARNEQEIEEL
# B11: LC3A_147_495 (protein)
# chain: GVVDIDILVKDKEAAEKVVEEFERKVEELREEGYEVELEVKIEKISEDEYYVEIRIRIRAPTEEEEQAALDKVVSFIEELEEKYKDEILASLISVELEKR
# B12: LC3A_28_739 (protein)
# chain: SEIEKQLEEAIKEAEEAAKKGESAVIEITVPETADEEDIEKVIEALEKIAEILKDVKDQAIVVNVEGGVKQEHIDKLMDAGEEIEEKYPNVTVIFALDEE
# B13: LC3A_147_501 (protein)
# chain: YKVVVDIDLLTKNDEELVKELVKKIEEELKKKGYDVKSEIEFEKVDENTTYAHIKITVETETEEEAKEAADLILDLIDKFVEENKDKILGSLINVEIEKK
# B14: LC3A_free_46_2356 (protein)
# chain: VKAEIDIDLLHEDEEVLKKAVEEIVKKTKEIAKKYNLEVKIEVKLSKDEDGSYFAEIKITVKAKTKEDAEKFVNDLINAIDEITKKYGVAAIISYEIEDE
# B15: LC3A_40_1916 (protein)
# chain: MYEVSIDILADDPAATAAALDKAAAAAKAKIKSASGEKILAALDKMRAAAAAGEPAVATITGISEEEANTLVQILEAAEEALHAAGVRVAALISVEEEEE
# B16: LC3A_28_1186 (protein)
# chain: SALDENLEAALAEAKAAAAAGEPTVITITVPSTADEEDIEKVKETLEEVAEILKDIPGSAIIVDVERGVPQEHIKKLAEKAEEVEEKYPNVTVLIALEEE
# B17: LC3A_13_346 (protein)
# chain: TIKLEAETPEELLEKSKAALKAHPGETIEITVTIENEEEAEKVAEALKEIFDLAIEYGNKLNVTLKGKKDLVNYAALLIGSYLFEKLGQIDANVTTEEVE
# B18: LC3A_3_1641 (protein)
# chain: MEEEVEEMAKLLEEAGHSEEVIEAFRETAELLMERGYENALKTLIEKMKEMIDLPDDLLLDFLNDVLNYIKTNDDSEEEVIKKINEFATITKNEGEIIEL
# B19: LC3A_free_0_2093 (protein)
# chain: MKIEITVLLISNEPVSEEKRKELIEEAERIAERISEEKGLETEVEEKIIDGRLVLTLTIIGEGLSIDEALEIEDEIVERLEEKAKELGVDVTIFSSVEEL
# B20: LC3A_3_1600 (protein)
# chain: SAALVAAQLERLRAAGFSPEVLAAARRLLEALAAKGFEEAAKTATDELLEAKDLPDELLVATLERLLHVVETEDLSEEEVIKEIKEEFRVARLEAEIEEL
# B21: LC3A_3_1791 (protein)
# chain: AEELIEALLAELRAAGKSDETLEAVRAALEALAERGYEEALETFVEELRELLDAPDEILLWLAEEVLRLVEEEDLNEEELKERIEELARLARSEAEIIEL
# B22: LC3A_141_359 (protein)
# chain: ETKTETKTLTATTEEEAEKVAEEIKAAIAAFMKKTGAKAVKVTVTITAYNEKTGKTETKTIVDTVTAENLDLFEEGLLIELLLFFERGATKVTVTVTMES
# B23: LC3A_3_1667 (protein)
# chain: AEELLKATLKWLKAEGKSEEVLKAVKEAAEELIKKGYEEALKTFVELLKEMKDLSDELLLDFANEVLELVKTEDIDEETLTKKIKEIARVIKLETEIEEL
# B24: LC3A_45_1929 (protein)
# chain: MWRATVDLLVPKELAEEVYKLIKEKLEELQKKYGPELKVDWKTLEESYEASKNEEEVYFRVEIYHPDKQVALDAADELVDAIEEATGGKVASIISIEEVP
# B25: LC3A_28_1291 (protein)
# chain: SALEKSIEKALKEAKEAKKKGESKVIILEVPGDATEEEIEKAIKTLEEIAEILKDVKDQAIIVDVDGKVPQEYIDKIAEKAEEIEKKYPNVTVIIALDEE
# B26: LC3A_28_1251 (protein)
# chain: MEVEEQIKKAKEKVKEAVAKGEEALVTLTVTKDSTEEDIEKVIEAMEEIAELAKDLPALTIIVDVEKGVPQEHIDKLADKGEEIEKKYPNVTVIIALEEE
# B27: LC3A_free_8_2518 (protein)
# chain: MSEKFAQKAVEILDELEKKVVELLKKKGASELDILEAELLLGSIIAEVISLKDKSPEEILKAIEEGLKELVEELKEYKEEVKKLADEALKKIKEAKKELE
# B28: LC3A_free_8_2529 (protein)
# chain: NVQKAVEETTKMLDELEEEARALGEELGLDPLDLADLELEIGEAIIEVIELVDKPLEEIYEKTKESLKRIEALAAEIHPELEALVKKKSKEILEKLEKMK
# B29: LC3A_28_1087 (protein)
# chain: SELEEQLKKALEEAKKAKEEGKEVTLEITVPDTATEEDIELVKETLKEIAEIAKELPSLSVVINLTGKNAQAKATELSAHAEELEKEVPNLTVIIALDED
# Target: MAP1LC3A, Q9H492
# Assay: median log2 fold change of GCK-ALFA target abundance (FLAG IP / Myc IP barcode read proportion) (log2 ratio); each designed protein is fused to an ALFA-tag nanobody in HEK293 cells to bring the named protein to FLAG-tagged glucokinase (GCK); Myc marks an untargeted standard; higher = target protein stabilised (more abundant)
# Conditions: target protein: 3xFLAG-MCP-GCK-ALFA reporter; HEK293 landing pad (RPLP)
# Method in brief: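 HEK293 landing-pad cells received a recombined binder library fused to the ALFA nanobody and were induced with 2 μg mL^−1 doxycycline, then transfected with a plasmid encoding a FLAG-tagged target and a Myc-tagged standard. Lysates were collected after 48 h for anti-FLAG and anti-Myc immunoprecipitation, and the circular RNA barcodes were reverse transcribed, amplified and sequenced. Target abundance for each binder is the median log2 ratio of FLAG to Myc barcode read proportions. Barcodes had to reach a proportion of at least 10^−7 in both replicates, each binder needed at least 3 barcodes per replicate, a pseudocount of 10^−6 was applied, and the two replicates were pooled.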
row,Binder,median log2 fold change
1,B1,0.23
2,B2,0.154
3,B3,0.16
4,B4,-0.18
5,B5,-0.0306
6,B6,0.0462
7,B7,0.228
8,B8,0.24
9,B9,0.252
10,B10,0.0663
11,B11,-0.312
12,B12,0.0231
13,B13,-0.19
14,B14,-0.15
15,B15,0.117
16,B16,0.0531
17,B17,0.201
18,B18,0.142
19,B19,-0.403
20,B20,0.216
21,B21,0.0945
22,B22,0.173
23,B23,0.313
24,B24,-0.0313
25,B25,0.115
26,B26,0.124
27,B27,0.169
28,B28,0.0184
29,B29,0.251
